Activity calls are given as the source filed them. The calls are words filed in the database; no cut-off is given here. Peptide text beside a SMILES is read from it.
Species on record: Homo sapiens
Assay: Modulation of Frizzled in human Caco2 cells assessed as protection against 0.25 to 1 ng/ml TcdB-induced cell rounding at 50 uM incubated for 24 hrs by phalloidin conjugated AlexaFluor488 dye based fluorescence microscopy relative to control

## CSCC[C@H](NC(=O)[C@@H](NC(=O)[C@H](Cc1cnc[nH]1)NC(=O)[C@H](CO)NC(=O)[C@H](Cc1c[nH]c2ccccc12)NC(=O)[C@H](Cc1ccccc1)NC(=O)[C@H](CCC(=O)O)NC(=O)[C@H](CC(C)C)NC(=O)[C@H](CC(=O)O)NC(=O)[C@H](CC(=O)O)NC(=O)[C@H](CO)NC(=O)[C@@H]1CCCN1C(=O)[C@H](CC(C)C)NC(C)=O)C(C)C)C(=O)N[C@@H](Cc1ccc(O)cc1)C(N)=O (Ac-LPSDDLEFWSHVMY-NH2)
  Activity: inactive

From ChEMBL document CHEMBL4373723 (J Med Chem, 2019)
